Peptide text beside a SMILES is read from it.
System: CD40-activated B cells (CD40-B)

SMILES	lysis of CD40-activated B cells (express CYP1B1, unpulsed) by peptide-specific CTL
CC(C)C[C@H](NC(=O)[C@@H](N)Cc1c[nH]c2ccccc12)C(=O)N[C@@H](CCC(N)=O)C(=O)N[C@@H](Cc1ccc(O)cc1)C(=O)N[C@@H](Cc1ccccc1)C(=O)N1CCC[C@H]1C(=O)N[C@@H](CC(N)=O)C(=O)N1CCC[C@H]1C(=O)N[C@H](C(=O)O)C(C)C [CYP246] (H-WLQYFPNPV-OH; N-terminus and C-terminus assumed)	not lysed
CSCC[C@H](NC(=O)[C@@H](NC(=O)[C@H](CC(=O)O)NC(=O)[C@@H](NC(=O)[C@H](CC(C)C)NC(=O)[C@@H](N)CO)C(C)C)C(C)C)C(=O)N1CCC[C@H]1C(=O)N[C@@H](Cc1c[nH]c2ccccc12)C(=O)N[C@@H](CC(C)C)C(=O)O [CYP239] (H-SLVDVMPWL-OH)	not lysed

— US7385023B1, “Cancer immunotherapy and diagnosis using cytochrome P450 1B1” (Trustees of Boston University, priority 2000, dated 2008)
